The values below come from PubChem BioAssay AID1963576 (National Center for Advancing Translational Sciences (NCATS), 2024).

Molecules are shown by their SMILES. Among all 46,000 compounds or so, about 60 (0.1%) were called active. About 3% were inconclusive and are not listed. The call rests on the fitted dose curve; in most records, active means well fitted inhibition curve with a large enough effect; inconclusive means small, poorly fitted or top-dose-only effect; inactive means no such curve, though single readings can be large or run the other way. Some of the results follow.

The test in a line: Primary qHTS assay for Inhibitors of ovarian cancer metastasis using an organotypic tumor microenvironment (TME) model. Further: nearly all actives have a fitted effect of over 65% in size.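 On activity change, negative = inhibition: plate controls were DMSO wells for no effect and tomatine positive control wells for full effect.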 The conditions noted are these: SKOV3ip1-GFP adhesion/invasion on 3D omental model, fluorescence; series mostly up to 45.8 µM; activity change, negative = inhibition: at the top concentration. Summed up: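 Adhesion/invasion was scored as fixed GFP-labeled SKOV3ip1 cell counts (488/509 nm), normalized to DMSO and tomatine controls. Cancer cells in serum-free medium, with four compound doses (0.36-46 umol/L), sat 2 hr at RT then 16 hr at 37 C on a 48 hr fibroblast/mesothelial/ECM culture.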
In general terms: Quantitative high-throughput screening tests each substance at several concentrations.
Consider `COCCCN1CN=C(NS(=O)(=O)c2ccc(NC(C)=O)cc2)NC1`, for which the compound was classed as inactive.

Turning to `Cc1ccc(-n2nc3c(N4CCC(C(=O)NCCc5ccccc5)CC4)nnc(C)c3c2C)cc1`, the “activity change, negative = inhibition” value was inactive: -13.9%.

For the compound `CCOc1ccc(NC(=O)Nc2cccc(C)n2)cc1`, the “activity change, negative = inhibition” value was inactive: 7.38%.

For the compound `COc1cc(C(=O)N2CCc3c([nH]c4ccccc34)C2c2ccc(F)cc2)cc(OC)c1OC` (configuration not stated), the “activity change, negative = inhibition” value is inactive: -1.49%.

As to `CC1=Nc2cc(C(=O)NC3CCC(C)CC3)ccc2Sc2c(C)ccc(C)c21` (configuration not stated), the “activity change, negative = inhibition” value is inactive: 8.3%.

As to `CCC(=O)N1CCc2cc(CNC(=O)Cc3ccc(OC)c(OC)c3)ccc21`, the “activity change, negative = inhibition” value is inactive: 36.6%.

Regarding `Cc1ccccc1Cn1cnc2c(oc3ccccc32)c1=O`, the “activity change, negative = inhibition” value is inactive: -16.2%.

Take `CC(=O)N1CCc2c(sc3c2c(=O)n(Cc2ccccc2)c(=O)n3Cc2cccc(Cl)c2)C1`: the “activity change, negative = inhibition” value was inactive: 44%.

With `COc1cc(-c2noc(-c3ccc(N4CCCC4)c([N+](=O)[O-])c3)n2)cc(OC)c1OC`, the result was inactive.

With `COc1ccc(-c2cn3nc(N4CCC(C(=O)NCc5cccc(Cl)c5)CC4)sc3n2)cc1`, the “activity change, negative = inhibition” value is inactive: 1.86%.

With `COC(=O)c1ccc(Nc2nc(-c3ccc(C)cc3)nc3ccccc23)cc1`, the “activity change, negative = inhibition” value is inactive: 26.9%.

Turning to `FC(F)(F)c1ccc2c(c1)ncc1c(-c3ccccc3)nn(-c3ccccc3)c12`, the compound was called inactive.

In the case of `CCOc1ccccc1CNC(=O)C1CCN(C(=O)N2CCOc3ccc(Cl)cc32)CC1`, the outcome was inactive.

`COc1ccc(NC(=O)c2ccc3c(c2)N(Cc2cccc(Cl)c2)C(=O)c2ccccc2S3(=O)=O)cc1Cl`: the “activity change, negative = inhibition” value was inactive: 7.86%.

For the compound `CCN(CC)C(=O)Cn1ncc2c([nH]c3ccc(C)cc32)c1=O`, the call was inactive.

On to `CC(C)Oc1ccc(CNC(=O)c2ccc(CS(=O)Cc3ccccc3Cl)o2)cc1` (configuration not stated), for which the “activity change, negative = inhibition” value was inactive: -7.05%.

Regarding `COc1ccc(OC)c(NC(=O)c2oc3c(c2C)-c2nn(Cc4ccc(Cl)cc4)cc2CC3)c1`, the “activity change, negative = inhibition” value was inactive: 13.7%.

For `Cc1cc(C)n2nc(-c3ccc(Cl)cc3)nc2n1`, the “activity change, negative = inhibition” value is inactive: -0.159%.

With `Cc1cccc(N2CCN(c3nc4ccc(C(=O)c5ccccc5)cc4n4cnnc34)CC2C)c1` (configuration not stated), the “activity change, negative = inhibition” value was inactive: 3.17%.

For `CCOC(=O)c1c(NC(=O)CSc2cn(CCNC(=O)c3ccc(OC)c(OC)c3)c3ccccc23)sc2c1CCC2`, the “activity change, negative = inhibition” value is inactive: 13.5%.

`Cc1cn2c(=O)cc(COC(=O)c3cccc(NC(=O)COc4ccccc4)c3)nc2s1`: the “activity change, negative = inhibition” value is inactive: -1.79%.

Turning to `Cc1cccc(OCCSc2nc3ccc(NC(=O)COc4ccccc4C)cc3s2)c1`, the “activity change, negative = inhibition” value is inactive: -5.04%.

`COC(=O)CN1C(=O)CSc2ccc(S(=O)(=O)Nc3ccccc3)cc21`: the “activity change, negative = inhibition” value is inactive: -5.62%.

As to `Cc1ccc2c(CC(=O)N3CCN(c4cccc(Cl)c4)CC3)coc2c1C`, the “activity change, negative = inhibition” value was inactive: -16.7%.

`CC(=O)Nc1ccc(NC(=O)Cn2cc3c(n2)CCCCC3)cc1`: the “activity change, negative = inhibition” value is inactive: -25.3%.

`CCOc1ccccc1NC(=O)CCc1c(C)nc2cc(-c3ccccc3)nn2c1C`: the “activity change, negative = inhibition” value is inactive: 25.2%.

In the case of `CC(C)C(=O)Nc1cccc(C(=O)Nc2nnc(C(F)(F)F)s2)c1`, the “activity change, negative = inhibition” value was inactive: 1.73%.

With `CCCN(CCC)C(=O)c1nn(C)c2c1CSc1ccccc1-2`, the “activity change, negative = inhibition” value was inactive: 6.16%.

For the compound `COc1ccc(-n2nc(-c3ccc(C)cc3)c3cnc4cc(F)c(F)cc4c32)cc1`, the call was inactive.

Regarding `COc1cccc(CNC(=O)c2ccc3c(c2)nc2n3CCC(C)C2)c1` (configuration not stated), the call was inactive.

For `Cc1ccc(NC(=O)Cn2nc(-c3ccccc3)nc(Cc3ccccc3)c2=O)cc1`, the “activity change, negative = inhibition” value was inactive: -7.11%.

With `Cc1cccc(NC(=O)c2c(NC(=O)c3ccco3)sc3c2CCC(C)C3)c1` (configuration not stated), the “activity change, negative = inhibition” value is inactive: 8.44%.

`Cc1c2cnn(-c3ccccc3)c(=O)c2c(C)n1C(C)C(=O)NCc1cccc(Br)c1` (configuration not stated): the “activity change, negative = inhibition” value is inactive: -8.76%.

As to `COc1cccc(NC(=O)Cn2c(=O)n(CCc3cccc(C)c3)c(=O)c3ccccc32)c1`, the outcome was inactive.

As to `CCOCCCn1c(=N)c(C(=O)NCc2ccccc2)cc2c(=O)n3ccccc3nc21`, the result was inactive.

Regarding `CC(C(=O)Nc1ccccc1)n1nnc2sc3c(c2c1=O)CCCC3` (configuration not stated), the “activity change, negative = inhibition” value was inactive: -28.4%.

With `Cc1ccc(NC(=O)CSc2nc3ccccc3n2CC(=O)N(C)C2CCCCC2)cc1C`, the “activity change, negative = inhibition” value is inactive: -1.53%.

Turning to `CCOc1ccc2nc(N3CCCC(C(=O)NCCc4ccc(C)cc4)C3)sc2c1` (configuration not stated), the “activity change, negative = inhibition” value is inactive: -9.14%.

As to `CCc1nc2nc(C)c(NS(=O)(=O)c3ccc(F)c(C)c3)c(=O)n2[nH]1`, the “activity change, negative = inhibition” value is inactive: -11.6%.

Regarding `Cc1nc(-c2cccc(F)c2)sc1CCNC(=O)C(=O)Nc1ccc2c(c1)OCCO2`, the “activity change, negative = inhibition” value was inactive: -4.92%.

Consider `Cc1ccccc1C(=O)Nc1ccccc1-c1nc(-c2ccccc2)no1`, for which the “activity change, negative = inhibition” value was inactive: -2.55%.

Turning to `Cc1ccc(NC(=O)C2CCCN2S(=O)(=O)c2ccc3nc(-c4ccccc4)[nH]c3c2)cc1C` (configuration not stated), the “activity change, negative = inhibition” value was inactive: -0.941%.

On to `Cc1cc(C(=O)NCc2ccccc2)c2c(C)nn(-c3cccc(Cl)c3C)c2n1`, for which the “activity change, negative = inhibition” value is inactive: -15.5%.

For `Cc1cccc(Cn2c(=O)n(Cc3ccccc3)c(=O)c3sc4ccccc4c32)c1`, the call was inactive.

Turning to `Cc1cccc(NC(=O)Nc2nnc(N3CCCC3)s2)c1`, the “activity change, negative = inhibition” value is inactive: -6.34%.

As for `CCCCn1c(CNC(=O)C23CC4CC(CC(C4)C2)C3)nnc1SCC(=O)Nc1ccc(F)cc1`, the result was inactive.

Regarding `Cc1ccc(-n2cnc3cc(C(=O)NCCC4=CCCCC4)ccc32)cc1Cl`, the “activity change, negative = inhibition” value was inactive: -7.31%.
